Source: the supplement of paper PMC3334620
Whole data set: some 33,000 sequences, median “E-score (-0.5 to 0.5)” near -0.012, cut for the highest 2% near 0.29. The list shows a part of the results.

The sequences below were run against T1, Ybr033w (UniProt P38073) (assay: PBM E-score (8-mer binding enrichment) (E-score (-0.5 to 0.5)); higher = stronger / more preferred TF binding; most listed sequences are background and not binding sites). Details: protein concentration: 200 nM; construct: GST-full length.
T1 sequence: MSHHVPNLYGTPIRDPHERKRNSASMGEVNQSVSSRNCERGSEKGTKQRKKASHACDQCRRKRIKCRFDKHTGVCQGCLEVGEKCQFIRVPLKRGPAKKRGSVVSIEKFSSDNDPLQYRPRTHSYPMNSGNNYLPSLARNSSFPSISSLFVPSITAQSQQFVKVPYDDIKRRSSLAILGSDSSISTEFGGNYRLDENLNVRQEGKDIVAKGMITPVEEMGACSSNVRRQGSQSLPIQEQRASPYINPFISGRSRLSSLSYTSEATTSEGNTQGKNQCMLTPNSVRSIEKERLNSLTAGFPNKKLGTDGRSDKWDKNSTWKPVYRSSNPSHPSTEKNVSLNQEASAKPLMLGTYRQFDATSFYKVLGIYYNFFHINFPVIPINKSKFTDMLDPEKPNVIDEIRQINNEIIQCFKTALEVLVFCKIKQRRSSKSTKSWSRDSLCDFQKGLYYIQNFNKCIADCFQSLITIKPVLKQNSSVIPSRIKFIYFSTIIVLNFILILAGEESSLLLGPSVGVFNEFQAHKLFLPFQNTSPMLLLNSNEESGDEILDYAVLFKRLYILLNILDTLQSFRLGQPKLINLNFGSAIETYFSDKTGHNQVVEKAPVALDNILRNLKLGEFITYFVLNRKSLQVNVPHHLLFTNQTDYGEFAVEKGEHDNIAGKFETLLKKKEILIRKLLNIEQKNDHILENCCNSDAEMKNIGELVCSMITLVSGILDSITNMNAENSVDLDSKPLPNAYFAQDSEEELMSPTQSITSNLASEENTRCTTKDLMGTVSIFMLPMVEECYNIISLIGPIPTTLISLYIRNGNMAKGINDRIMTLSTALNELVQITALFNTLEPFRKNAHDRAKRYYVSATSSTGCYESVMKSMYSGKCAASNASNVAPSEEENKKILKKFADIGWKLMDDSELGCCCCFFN
Protocol: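 Universal 'all 10-mer' protein binding microarrays (Agilent AMADID 015681) probed with GST-tagged S. cerevisiae TFs (full-length or DBD) made by in vitro transcription/translation (PURExpress), about 100-200 nM. Bound TF was detected with fluorescent anti-GST. Each ungapped 8-mer (which stands for itself and its reverse complement) is scored by the PBM enrichment score (E-score), a modified Wilcoxon-Mann-Whitney statistic from -0.5 to +0.5, computed with the Universal PBM Analysis Suite. Scale: above 0.35 generally sequence-specific binding.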

Row | Sequence | PBM E-score
1 | ACACGGTG | 0.00661
2 | ATCTAGGA | 0.084
3 | ATGATAAG | 0.0206
4 | AATAAGGT | -0.126
5 | ACAAGCGT | 0.0181
6 | ATCTTTAG | -0.0104
7 | ACAGCGAT | -0.0984
8 | CGATGACC | -0.0825
9 | CGTCCTGC | -0.157
10 | CCGATGAC | -0.126
11 | AGTCGCGC | 0.101
12 | CCACTCGG | -0.12
13 | TATACGCA | 0.162
14 | CAAACAGA | 0.153
15 | ATTCCGCC | 0.249
16 | CGGCTCCA | -0.152
17 | ACCAATTC | 0.0525
18 | CCAGTGCG | -0.207
19 | CATGTTGC | 0.0319
20 | GCATTCCA | -0.0744
21 | AAAACTAA | 0.328
22 | ATGGTGAA | 0.0422
23 | CTGATGCA | 0.0386
24 | ATGAATCC | 0.036
25 | AATATCGA | 0.164

Row | Sequence | PBM E-score
26 | CGCATCCC | -0.239
27 | CTCATATA | 0.0769
28 | GTTAAGTA | 0.113
29 | AAACTATT | 0.189
30 | GATCCGGC | -0.0438
31 | CGCCGGTA | -0.129
32 | ACGGGCCT | -0.233
33 | CACGGGAG | -0.33
34 | CAGCCGAA | -0.0479
35 | CGCGAAAC | -0.0228
36 | CGTACGTA | -0.0378
37 | AGCGCAGA | -0.0391
38 | CATCAATA | 0.201
39 | CGAAACCA | 0.133
40 | ACCGATAT | 0.14
41 | AACATTAC | 0.176
42 | ACAAACGC | 0.0702
43 | CAATAGGA | -0.0861
44 | CGAACCCG | -0.229
45 | ACGCCGAA | -0.154
46 | ACTAGGGA | -0.159
47 | ACTACCAT | 0.0768
48 | AGATGGGC | -0.0391
49 | TAGTAATA | 0.241
50 | AAGCTTAT | 0.143

Row | Sequence | PBM E-score
51 | CCATTCGG | -0.0494
52 | AAGAGACT | -0.0144
53 | AACAACAC | 0.0909
54 | AGATATCT | -0.0256
55 | CTCGGTAA | 0.029
56 | GCGTCTAC | -0.255
57 | ACCCGTAT | -0.0227
58 | AGATTCTA | 0.106
59 | CACGAATA | 0.135
60 | CAAAGTAC | 0.074
61 | AATTAAAC | 0.377
62 | GCAAGGAA | 0.104
63 | AGGCTTAG | 0.0242
64 | GCAGGAGA | -0.00164
65 | ACCACTTA | -0.0282
66 | CAGGTCGG | -0.175
67 | CTTATTGA | 0.201
68 | GACCCAGC | -0.381
69 | CTATCCGC | 0.00507
70 | ATACTACG | 0.0364
71 | AGCGGGCG | -0.206
72 | CAGCCATC | -0.166
73 | ATCACAAA | 0.189
74 | GCCAGGGA | -0.313
75 | CTCAGAAC | 0.027

Row | Sequence | PBM E-score
76 | AGTCCTTA | -0.049
77 | CCGTTAAA | 0.182
78 | CACAGCCG | -0.0957
79 | AACATCGA | 0.134
80 | ACAGGCTC | -0.113
81 | ATTGCTAG | -0.00031
82 | GGAGCTCA | -0.243
83 | GGGGTAAC | -0.235
84 | CGGTTCAA | -0.0607
85 | AGCGTGGA | -0.0258
86 | GAGTCTAA | 0.0395
87 | CGGCTACG | -0.146
88 | ACAAAGGG | -0.181
89 | CGACAGAA | 0.181
90 | CGTGTTAA | 0.198
91 | GGCACACA | -0.112
92 | CATCCGAG | -0.0881
93 | CGTGCCAC | -0.283
94 | GCTTTCAA | 0.185
95 | AGAAGTCA | -0.02
96 | AGGCGCGC | -0.142
97 | CTCCTGCA | -0.145
98 | ATACTGTC | 0.0114
99 | ATGTTTAA | 0.218
100 | AGAGAACG | 0.0819

Row | Sequence | PBM E-score
101 | CCGTCGAG | 0.102
102 | GCGCCCCC | -0.392
103 | ATTTTGCG | 0.275
104 | AAATAATT | 0.388
105 | AAGGGTTA | 0.00598
106 | AGTAAAAA | 0.193
107 | GCTCTGTA | -0.00345
108 | ATCTCCTC | -0.0758
109 | CTACGCTC | -0.166
110 | AGTAGGGA | -0.0323
111 | ACGGGGGG | -0.459
112 | AATATTCC | 0.45
113 | AATGAACC | 0.0438
114 | ACCACCGT | -0.126
115 | CGGCGCAC | -0.0026
116 | CCGAATGA | 0.0806
117 | AGCCTCAC | -0.111
118 | ATGCGCAT | 0.2
119 | ATCGGGCG | -0.162
120 | AATAGTAC | 0.129
121 | CGATGAGC | -0.153
122 | CGTACGAG | 0.0796
123 | CGTTTGAA | 0.0628
124 | CTATGAAG | 0.0395
125 | AAGGTGGC | -0.0461

Row | Sequence | PBM E-score
126 | GCGTGAAC | -0.0541
127 | CAAATCGA | 0.112
128 | ATACGTTC | -0.118
129 | ACTCTATC | -0.0216
130 | GGTGCTTA | -0.116
131 | CCGCAATA | 0.191
132 | CAACAAAG | 0.235
133 | ACCCGGCA | -0.108
134 | GACGCCGC | -0.0979
135 | GATACGAA | 0.165
136 | ACAGTACG | 0.074
137 | AACTCCTA | 0.149
138 | AGATATTG | 0.185
139 | GAGGACTC | -0.345
140 | CCGTTTGC | -0.129
141 | GTAGTTCA | 0.202
142 | CAAGGCAC | -0.134
143 | CTGTGGAC | -0.177
144 | CCCCGGGC | -0.302
145 | GTACCTGA | -0.00902
146 | TATAAGCA | 0.141
147 | AAGCACTG | 0.162
148 | CAATCCTC | 0.0592
149 | AATATGCT | 0.187
150 | ACGAATCA | 0.136

Row | Sequence | PBM E-score
151 | CGGCCATC | -0.294
152 | TAATGTGA | 0.223
153 | ATGGAGCC | -0.117
154 | AGAAGTTG | 0.0396
155 | AGTGGGGG | -0.395
156 | AATACTGT | 0.234
157 | AACCTGAT | 0.104
158 | CACCGGCG | -0.144
159 | GGCAGAGA | -0.0846
160 | AATATAAG | 0.295
161 | CCAGCTTA | -0.0186
162 | TGACGCAA | -0.193
163 | AACTGCAT | 0.16
164 | ATCCGGAT | 0.166
165 | ATGTCCAG | -0.0268
166 | AGAGATGC | -0.106
167 | AGAATTTC | 0.0968
168 | ATCCGGTA | 0.0524
169 | ACAACCCT | -0.169
170 | ATTTGAAA | 0.232
171 | GGATCGAC | 0.0299
172 | ACCGTACG | -0.142
